This is an account of results in PubChem BioAssay AID1508642 (National Center for Advancing Translational Sciences (NCATS), 2021).

Out of some 43,000 compounds screened, about 200 (0.47%) were called active. About 12% were inconclusive and are not listed. Calls follow the shape of the dose curve; as a rule, active = well fitted cell-killing curve with a large enough effect; inconclusive = small, poorly fitted or top-dose-only effect, or effect the other way; inactive = flat fitted curve, though single readings scatter. The list shows a part of the results.
% is scaled to controls: 0 for no effect and ±100 for the full control effect.

The assay in a line: Cell viability qHTS assay in S16 Pmp22-F2sN cells. Also: nearly all actives have a fitted effect of over 65% in size. To be noted: S16 Pmp22-F2sN Schwann cells viability, CellTiter-Glo, 24 h; series mostly up to 57.5 µM; activity change, negative = cytotoxicity: at the top concentration. A digest of the protocol: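 Viability was measured by CellTiter-Glo luminescence (15 min, room temperature). This followed 24 h at 37 °C of compound exposure (23 nL pin transfer) in S16 Pmp22-F2sN Schwann cells, 500-1,000 per well.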
For `CCOC(=O)c1sc2cccc(F)c2c1S(=O)(=O)Nc1ccccc1F`, the “activity change, negative = cytotoxicity” value was inactive: 12.7%.
For `Cc1ccc(C)c(NC(=O)Cn2c(=O)n(CC(=O)NCCc3ccccc3)c(=O)c3ccccc32)c1`, the “activity change, negative = cytotoxicity” value was inactive: -11.5%.
Then `O=C(CSc1nnc(-c2ccc(Cl)cc2)c(-c2ccc(Cl)cc2)n1)NC1CCCC1`, with inactive: -12.6%; and `COc1ccc(NC(=O)c2nnn(CC(=O)Nc3cc(C)cc(C)c3)c2N)c(OC)c1`, with inactive: 3.59%.
Turning to `CCN(C(=O)c1cc(S(=O)(=O)N2CCCC2)cn1C)c1ccc(OC)cc1`, the “activity change, negative = cytotoxicity” value is inactive: 2.8%.
With `COc1ccc(Cn2c(SCc3ccc(C(=O)NCc4cccs4)cc3)nc3ccncc32)cc1`, the “activity change, negative = cytotoxicity” value was inactive: -20.6%.
For `O=S(=O)(c1ccccc1)c1nc(-c2ccco2)oc1SCc1ccc(F)cc1`, the “activity change, negative = cytotoxicity” value is inactive: -2.66%.
The value for `CCCCC(=O)Nc1ccc(C(=O)OCc2cc(=O)n3ccsc3n2)cc1` was inactive: 6.75%; that for `Cc1cccc(N2C(=O)N(Cc3ccc(C(C)(C)C)cc3)c3ccccc3S2(=O)=O)c1` was inactive: 15.2%; that for `CCOC(=O)c1c(NC(=O)C(C)Sc2cn(CCNC(=O)c3ccc(OC)cc3)c3ccccc23)sc2c1CCC2` (stereo not given) was inactive: -0.119%.
The value for `Cc1ccc(CSCCNC(=O)CN(c2cccc(C)c2C)S(=O)(=O)c2ccccc2)cc1` was inactive: -5.87%; that for `O=C(NCc1ccc(Cl)cc1)c1cnc(N2CCOCC2)c2ccccc12` was inactive: -0.354%; that for `COc1ccccc1NC(=O)C1=C(C)Nc2nc(SCC(=O)c3ccc(C)cc3)nn2C1c1ccc(F)cc1` (stereo not given) was inactive: -5.77%.
With `Cc1ccccc1CNC(=O)c1ccc(Cn2c(SCc3ccccc3)nc3cccnc32)cc1`, the “activity change, negative = cytotoxicity” value is inactive: -26.5%.
Take `CC1CCCN(S(=O)(=O)c2cc(C(=O)NCCc3ccccc3)n(C)c2)C1` (stereo not given): the “activity change, negative = cytotoxicity” value was inactive: 16.5%.
Then `COc1ccc(CNC(=O)c2ccc3c(c2)CCN3S(=O)(=O)c2ccccc2)cc1`, with inactive: -0.678%.
The value for `CCOc1ccc2nc(NC(=O)c3nc(SCc4ccc(C)cc4)ncc3Cl)sc2c1` was inactive: 9.58%.
The value for `COc1ccc(N2CCN(c3nc4ccccc4n4c(C)nnc34)CC2)cc1` was inactive: 6.02%; that for `CN(C(=O)CSc1nc2ccccc2[nH]1)c1ccc(F)cc1` was inactive: -1.71%.
As for `Cc1ccc(CSc2nncn3c2cc2sccc23)cc1`, the “activity change, negative = cytotoxicity” value was inactive: 1.5%.
The value for `CC(C)COc1ccc(C(=O)N2CCC(c3nc4ccccc4s3)CC2)cc1` was inactive: 10.1%.
Then `Cc1ccc2occ(CC(=O)Nc3c(C(=O)Nc4ccc(Cl)cc4)oc4ccccc34)c2c1`, with inactive: 0.806%; and `O=C(CC1N=C2c3ccccc3N=C(SCC(=O)Nc3ccccc3F)N2C1=O)NCc1ccc2c(c1)OCO2` (stereo not given), with inactive: 4.74%; and `Cc1cccc(C)c1NC(=O)CN(C)S(=O)(=O)c1ccc2[nH]c3c(c2c1)CCCC3`, with inactive: -29.1%.
The value for `Cc1cccc(CSc2nc(=O)c3c(n2C)NC(=O)CC3c2cccc(O)c2)c1` (stereo not given) was inactive: 1.84%; that for `Cc1ccc2c(c1)sc1nc(-c3cc4cc(Cl)ccc4oc3=O)cn12` was inactive: 0.803%; that for `COc1ccccc1NC(=O)Cn1c(=O)n(-c2cccc(Cl)c2)c(=O)c2sc3ccccc3c21` was inactive: 1.46%.
Take `COc1cc2[nH]c(=O)n(Cc3ccc(C(=O)NCc4ccc(C)cc4)cc3)c(=O)c2cc1OC`: the “activity change, negative = cytotoxicity” value is inactive: -0.0758%.
As for `O=C1Cc2cc(S(=O)(=O)N3CCCCC3)cc3c2N1CCC3`, the “activity change, negative = cytotoxicity” value was inactive: -0.0795%.
In the case of `Cc1ccc(N2CC(NC(=O)Cc3ccc(F)cc3)CC2=O)cc1` (stereo not given), the “activity change, negative = cytotoxicity” value is inactive: 4.31%.
Turning to `CC1=C(C(=O)Nc2cccc(C(F)(F)F)c2)C2(CCCCCC2)OC1=O`, the “activity change, negative = cytotoxicity” value was inactive: -6.97%.
In the case of `O=C(Cn1c(=O)n(Cc2ccc(C(=O)NCc3ccc4c(c3)OCO4)cc2)c(=O)c2ccccc21)Nc1cccc(Cl)c1`, the “activity change, negative = cytotoxicity” value is inactive: 11.5%.
Take `O=C(NCCc1ccc(Cl)cc1)c1ccc(CS(=O)(=O)Cc2ccc(Cl)cc2)o1`: the “activity change, negative = cytotoxicity” value was inactive: -1.02%.
The value for `Cc1noc(-c2ccc(-c3noc(-c4ccccc4)n3)cc2)n1` was inactive: -0.0276%.
On to `CCC(C(=O)NCc1ccc2c(c1)CCN2C(=O)c1ccc(F)cc1)c1ccccc1` (stereo not given), for which the “activity change, negative = cytotoxicity” value was inactive: 6.56%.
For `CC(=O)c1cc(-c2ccccc2)n(CCC(=O)Nc2nc3c(C)cccc3s2)c1C`, the “activity change, negative = cytotoxicity” value is inactive: 11%.
The value for `CCOc1ccc(CCNC(=O)c2cc(Nc3ccc(C)cc3C)nc3ccccc23)cc1OCC` was inactive: 2.11%.
Then `CC1CCN(S(=O)(=O)c2ccc3[nH]cc(C(=O)NCc4ccc(F)cc4)c(=O)c3c2)CC1`, with inactive: -6.07%; and `CCOC(=O)c1cc(-c2ccc(C)cc2)n(CCC(=O)Nc2cc(Cl)ccc2C)c1C`, with inactive: 0.579%; and `Cc1cccc(C)c1NC(=O)Cn1cc(S(=O)(=O)Cc2ccc(F)cc2)c2ccccc21`, with inactive: 13.7%.
Turning to `Cc1ccc(CNC(=O)CN2C(=O)COc3ccccc32)cc1`, the “activity change, negative = cytotoxicity” value was inactive: 1.24%.
Then `Cc1cc(C)cc(NC(=O)Cn2c(=O)n(CC(=O)NCCc3ccccc3)c(=O)c3ccccc32)c1`, with inactive: -3.83%; and `COc1ccc(C(=O)Nc2nnc(SCc3cc(=O)n4cc(Cl)ccc4n3)s2)cc1`, with inactive: 12.7%; and `Clc1cccc(-n2ncc3c(N4CCCCCC4)ncnc32)c1`, with inactive: 5.23%.
The value for `Cn1c(=O)n(C)c2cc(N3CCCC3)c(NC(=O)Nc3ccccc3)cc21` was inactive: -1.01%; that for `CCNc1sc(S(C)(=O)=O)nc1S(=O)(=O)c1ccc(C)cc1` was inactive: -7.01%.
The value for `Cc1ccc(Cn2c(=O)n(Cc3ccccc3Cl)c(=O)c3cccnc32)cc1` was inactive: 16.8%.
In the case of `COc1cc(OC)c(NC(=O)c2c(C)oc3ncnc(N4CCCCC4)c23)cc1Cl`, the “activity change, negative = cytotoxicity” value was inactive: 1.63%.
For `Cc1ccc(N2CCN(c3nc4ccccc4c4nnc(C)n34)CC2)c(C)c1`, the “activity change, negative = cytotoxicity” value was inactive: -0.754%.
Take `CCc1ccc(NC(=O)CCNC(=O)Cn2cnc3ccccc3c2=O)cc1`: the “activity change, negative = cytotoxicity” value was inactive: 5.27%.
With `Cc1ccc(NC(=O)Cn2ncn3c(cc4ccccc43)c2=O)cc1C`, the “activity change, negative = cytotoxicity” value is inactive: 3.43%.
With `Nc1nc(N)c(S(=O)(=O)c2ccccc2)c(Nc2ccc(F)cc2)n1`, the “activity change, negative = cytotoxicity” value was inactive: 20.4%.
Then `Cn1ccc2cc(S(=O)(=O)N3CCN(C(=O)Nc4ccccc4F)CC3)ccc21`, with inactive: -3.1%.
Then `CCOC(=O)N1CCC(NC(=O)c2ccc3c(c2)N(Cc2ccc(Cl)cc2)C(=O)c2ccccc2S3=O)CC1` (stereo not given), with inactive: -7.56%.
The value for `Cc1cccc(N(C)S(=O)(=O)c2nnc(NC(=O)C3CCCCC3)s2)c1` was inactive: -0.699%.
As to `O=C(CSc1nc2ccccc2nc1Cc1ccccc1)N1CCCc2ccccc21`, the “activity change, negative = cytotoxicity” value was inactive: -21.6%.
In the case of `CCOC(=O)c1cccc(NC(=O)c2sc3nc[nH]c(=O)c3c2C)c1`, the “activity change, negative = cytotoxicity” value is inactive: -4.37%.
The value for `COc1cc(-c2ccno2)ccc1S(=O)(=O)N1CCN(c2ccc(F)cc2)CC1` was inactive: -25.4%; that for `CCc1ccc2occ(CC(=O)N(Cc3ccc(N(C)C)cc3)C3CCS(=O)(=O)C3)c2c1` (stereo not given) was inactive: -20.4%.
Then `CCOC(=O)N1CCc2c(sc3c2c(=O)n(-c2ccc(CC)cc2)c(=O)n3Cc2cc(C)ccc2C)C1`, with inactive: 5.11%.
